Test results taken from PMC5038265 (Antimicrobial Agents and Chemotherapy, 2016).

What was measured:
[1] = system: M. tuberculosis Erdman; type: in vivo, BALB/c mouse; conditions: 3 weeks with weekend drug holidays
[2] = system: M. tuberculosis Erdman; assay: Murine GKO (C57BL/6-Ifngtm1ts) model of acute TB; type: in vivo, C57BL/6 GKO IFN-γ mice
[3] = system: M. tuberculosis Erdman; conditions: oral, 5 days a week for 4 weeks; Fig. 5C

CCOc1cccc2c1B(O)OC2CN (centres unmarked) [Compound 1]
reduction in CFU from mouse lungs ([1]; 100 mg/kg twice a day (BID)): 0.4 log10

CCOc1cccc2c1B(O)O[C@@H]2CN [Compound 2]
reduction in lung CFU compared to control mice ([2]; 200 mg/kg BID for 9 days, oral): 2 log10 | reduction in spleen CFU compared to control mice ([2]; 200 mg/kg BID for 9 days, oral): 1.5 log10

CCOc1ccc(Br)c2c1B(O)OC2CN (centres unmarked) [Compound 11]
efficacy in GKO mouse model of acute TB ([2]; oral, daily, Fig. 5A and B): efficacy similar to that of isoniazid

CCOc1ccc(Br)c2c1B(O)O[C@@H]2CN [Compound 14]
efficacy in BALB/c mouse model of chronic TB infection [3]: the most potent

NNC(=O)c1ccncc1 [Isoniazid, isoniazid, reference compound]
reduction in CFU from lungs ([2]; 25 mg/kg): 2.8 log10 | reduction in CFU from spleen ([2]; 25 mg/kg): 3.4 log10

O=[N+]([O-])c1cn2c(n1)OC[C@@H](OCc1ccc(OC(F)(F)F)cc1)C2 [PA-824, pretomanid, reference compound]
reduction in CFU from mouse lungs ([1]; 100 mg/kg once a day (QD)): 1.9 log10

Like-named read-outs stand apart in the source and are kept apart here.
